This passage reports binding signal results from paper PMC9911399, “Two distinct binding modes provide the RNA-binding protein RbFox with extraordinary sequence specificity”.

To fix the notation:
T1: RBFOX1 RRM (Homo sapiens, UniProt Q9NWB1 109-208)
T1 sequence: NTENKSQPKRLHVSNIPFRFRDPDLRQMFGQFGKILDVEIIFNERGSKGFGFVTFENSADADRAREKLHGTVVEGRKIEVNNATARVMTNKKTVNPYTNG

B1: GCUGGGU (DNA:RNA)
RNA: GGGAGACCGGAAUUCAGAUUGUCCGCUGGGUUUAAAUCCCGUCGUAGCCACCA
DNA 1: CAATCTGAATTCCGGTCTCCC
DNA 2: TGGTGGCTACGACGGGATT
B2: UAUUCAU (DNA:RNA)
RNA: B1 RNA with G25U, C26A, G28U, G29C, G30A
DNA 1: CAATCTGAATTCCGGTCTCCC
DNA 2: TGGTGGCTACGACGGGATT
B3: CAGUCAU (DNA:RNA)
RNA: B1 RNA with G25C, C26A, U27G, G28U, G29C, G30A
DNA 1: CAATCTGAATTCCGGTCTCCC
DNA 2: TGGTGGCTACGACGGGATT
B4: GUGUUCA (DNA:RNA)
RNA: B1 RNA with C26U, U27G, G28U, G29U, G30C, U31A
DNA 1: CAATCTGAATTCCGGTCTCCC
DNA 2: TGGTGGCTACGACGGGATT
B5: CCUAACG (DNA:RNA)
RNA: B1 RNA with G25C, G28A, G29A, G30C, U31G
DNA 1: CAATCTGAATTCCGGTCTCCC
DNA 2: TGGTGGCTACGACGGGATT
B6: UCGUAAU (DNA:RNA)
RNA: B1 RNA with G25U, U27G, G28U, G29A, G30A
DNA 1: CAATCTGAATTCCGGTCTCCC
DNA 2: TGGTGGCTACGACGGGATT
B7: GUGCUAC (DNA:RNA)
RNA: B1 RNA with C26U, U27G, G28C, G29U, G30A, U31C
DNA 1: CAATCTGAATTCCGGTCTCCC
DNA 2: TGGTGGCTACGACGGGATT
B8: GAUUAGC (DNA:RNA)
RNA: B1 RNA with C26A, G28U, G29A, U31C
DNA 1: CAATCTGAATTCCGGTCTCCC
DNA 2: TGGTGGCTACGACGGGATT
B9: CAGCUUG (DNA:RNA)
RNA: GGGAGACCGGAAUUCAGAUUGUCCCAGCUUGUUAAAUCCCGUCGUAGCCACCA
DNA 1: CAATCTGAATTCCGGTCTCCC
DNA 2: TGGTGGCTACGACGGGATT
B10: GUCCGUA (DNA:RNA)
RNA: B9 RNA with C25G, A26U, G27C, U29G, G31A
DNA 1: CAATCTGAATTCCGGTCTCCC
DNA 2: TGGTGGCTACGACGGGATT
B11: UAGAGCA (DNA:RNA)
RNA: B9 RNA with C25U, C28A, U29G, U30C, G31A
DNA 1: CAATCTGAATTCCGGTCTCCC
DNA 2: TGGTGGCTACGACGGGATT
B12: GAGAUGC (DNA:RNA)
RNA: B9 RNA with C25G, C28A, U30G, G31C
DNA 1: CAATCTGAATTCCGGTCTCCC
DNA 2: TGGTGGCTACGACGGGATT
B13: CCUAACA (DNA:RNA)
RNA: B1 RNA with G25C, G28A, G29A, G30C, U31A
DNA 1: CAATCTGAATTCCGGTCTCCC
DNA 2: TGGTGGCTACGACGGGATT
B14: UGAGGCG (DNA:RNA)
RNA: B1 RNA with G25U, C26G, U27A, G30C, U31G
DNA 1: CAATCTGAATTCCGGTCTCCC
DNA 2: TGGTGGCTACGACGGGATT
B15: AACCGAA (DNA:RNA)
RNA: B9 RNA with C25A, G27C, U29G, U30A, G31A
DNA 1: CAATCTGAATTCCGGTCTCCC
DNA 2: TGGTGGCTACGACGGGATT
B16: AGUUAGU (DNA:RNA)
RNA: B1 RNA with G25A, C26G, G28U, G29A
DNA 1: CAATCTGAATTCCGGTCTCCC
DNA 2: TGGTGGCTACGACGGGATT
B17: AUGAAGG (DNA:RNA)
RNA: B9 RNA with C25A, A26U, C28A, U29A, U30G
DNA 1: CAATCTGAATTCCGGTCTCCC
DNA 2: TGGTGGCTACGACGGGATT
B18: AAAGGCU (DNA:RNA)
RNA: B1 RNA with G25A, C26A, U27A, G30C
DNA 1: CAATCTGAATTCCGGTCTCCC
DNA 2: TGGTGGCTACGACGGGATT
B19: GCCGGAU (DNA:RNA)
RNA: B1 RNA with U27C, G30A
DNA 1: CAATCTGAATTCCGGTCTCCC
DNA 2: TGGTGGCTACGACGGGATT
B20: UACGCUG (DNA:RNA)
RNA: B9 RNA with C25U, G27C, C28G, U29C
DNA 1: CAATCTGAATTCCGGTCTCCC
DNA 2: TGGTGGCTACGACGGGATT
B21: GUUAGCC (DNA:RNA)
RNA: B1 RNA with C26U, G28A, G30C, U31C
DNA 1: CAATCTGAATTCCGGTCTCCC
DNA 2: TGGTGGCTACGACGGGATT
B22: CGAUAGC (DNA:RNA)
RNA: B9 RNA with A26G, G27A, C28U, U29A, U30G, G31C
DNA 1: CAATCTGAATTCCGGTCTCCC
DNA 2: TGGTGGCTACGACGGGATT
B23: UACUUAA (DNA:RNA)
RNA: B9 RNA with C25U, G27C, C28U, U30A, G31A
DNA 1: CAATCTGAATTCCGGTCTCCC
DNA 2: TGGTGGCTACGACGGGATT
B24: ACUGUUG (DNA:RNA)
RNA: B9 RNA with C25A, A26C, G27U, C28G
DNA 1: CAATCTGAATTCCGGTCTCCC
DNA 2: TGGTGGCTACGACGGGATT
B25: AAUAUCA (DNA:RNA)
RNA: B9 RNA with C25A, G27U, C28A, U30C, G31A
DNA 1: CAATCTGAATTCCGGTCTCCC
DNA 2: TGGTGGCTACGACGGGATT
B26: GCGCUCU (DNA:RNA)
RNA: B9 RNA with C25G, A26C, U30C, G31U
DNA 1: CAATCTGAATTCCGGTCTCCC
DNA 2: TGGTGGCTACGACGGGATT
B27: UCACCGU (DNA:RNA)
RNA: B1 RNA with G25U, U27A, G28C, G29C
DNA 1: CAATCTGAATTCCGGTCTCCC
DNA 2: TGGTGGCTACGACGGGATT
B28: AUGAUUA (DNA:RNA)
RNA: B9 RNA with C25A, A26U, C28A, G31A
DNA 1: CAATCTGAATTCCGGTCTCCC
DNA 2: TGGTGGCTACGACGGGATT
B29: UGACCUC (DNA:RNA)
RNA: B9 RNA with C25U, A26G, G27A, U29C, G31C
DNA 1: CAATCTGAATTCCGGTCTCCC
DNA 2: TGGTGGCTACGACGGGATT
B30: UCCUGCG (DNA:RNA)
RNA: B1 RNA with G25U, U27C, G28U, G30C, U31G
DNA 1: CAATCTGAATTCCGGTCTCCC
DNA 2: TGGTGGCTACGACGGGATT
B31: GGACCAU (DNA:RNA)
RNA: B1 RNA with C26G, U27A, G28C, G29C, G30A
DNA 1: CAATCTGAATTCCGGTCTCCC
DNA 2: TGGTGGCTACGACGGGATT

Residue numbers refer to the chain shown, from its start. The list shows a part of the results.

The assay has as its target T1, RBFOX1 RRM. As to the kind of experiment: EMSA; HiTS-Eq, 1 nM pool, 10 min; buffer printed only for the single-RNA assays: 10 mM Tris pH 7.5, 150 mM NaCl, 3.4 mM EDTA, 0.001% NP-40, 30 C. To be noted: tags: His6 N-terminal (pET28a); label: 5' 32P. The procedure, abridged:
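Purified RbFox RRM, wild type or mutant, was incubated for 10 min in 50 µL with 1 nM of a 5′-radiolabelled RNA pool carrying 7 randomized nucleotides, whose flanks were annealed to DNA oligonucleotides, over a series of increasing protein concentrations. Unbound RNA was resolved on 8% native PAGE, cut out, reverse-transcribed, barcoded by PCR and sequenced on an Illumina HiSeq 2500. Relative association constants were derived from changes in read counts for each RNA species versus the control reaction and normalised to the cognate motif.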
(A gel shift assay detects complexes by their altered migration in electrophoresis.)
Consider B1, for which the binding signal is 0.0155 KA relative to UGCAUGU.

With B2, the binding signal is 0.00681 KA relative to UGCAUGU.

As to B3, the binding signal was 0.00308 KA relative to UGCAUGU.

With B4, the binding signal is 0.0118 KA relative to UGCAUGU.

On to B5, for which the binding signal was 0.00116 KA relative to UGCAUGU.

As for B6, the binding signal is 0.00858 KA relative to UGCAUGU.

B7: the binding signal is 0.0161 KA relative to UGCAUGU.

Consider B8, for which the binding signal is 0.0124 KA relative to UGCAUGU.

As to B9, the binding signal was 0.0239 KA relative to UGCAUGU.

For the molecule B10, the binding signal is 0.0126 KA relative to UGCAUGU.

For the molecule B11, the binding signal is 0.0143 KA relative to UGCAUGU.

As for B12, the binding signal was 0.0134 KA relative to UGCAUGU.

Consider B13, for which the binding signal is 0.00162 KA relative to UGCAUGU.

Consider B14, for which the binding signal is 0.0139 KA relative to UGCAUGU.

As for B15, the binding signal is 0.00264 KA relative to UGCAUGU.

Regarding B16, the binding signal is 0.00994 KA relative to UGCAUGU.

For B17, the binding signal is 0.0153 KA relative to UGCAUGU.

Take B18: the binding signal was 0.00555 KA relative to UGCAUGU.

B19: the binding signal was 0.0131 KA relative to UGCAUGU.

As to B20, the binding signal was 0.0144 KA relative to UGCAUGU.

For B21, the binding signal was 0.0117 KA relative to UGCAUGU.

B22: the binding signal was 0.0128 KA relative to UGCAUGU.

Turning to B23, the binding signal was 0.002 KA relative to UGCAUGU.

B24: the binding signal was 0.0163 KA relative to UGCAUGU.

In the case of B25, the binding signal is 0.00242 KA relative to UGCAUGU.

With B26, the binding signal is 0.0118 KA relative to UGCAUGU.

Turning to B27, the binding signal was 0.00405 KA relative to UGCAUGU.

As to B28, the binding signal is 0.00154 KA relative to UGCAUGU.

Turning to B29, the binding signal was 0.0125 KA relative to UGCAUGU.

B30: the binding signal was 0.0166 KA relative to UGCAUGU.

In the case of B31, the binding signal is 0.0048 KA relative to UGCAUGU.
